# Measurements taken from PubChem BioAssay (NCATS).
# The inconclusive results got no clear call from the source; some entries with a clear call stand among them for comparison. Potencies of inconclusive entries are left out as doubtful fits. The source made the active and inactive calls. The call rests on the fitted dose curve; in most records, active means well fitted inhibition curve with a large enough effect; inconclusive means small, poorly fitted or top-dose-only effect, or another doubt; inactive means no such curve, though single readings can be large or run the other way.
# Target: DNA polymerase eta (Homo sapiens) (UniProt Q9Y253)
# Sequence of UniProt Q9Y253 (Q9Y253 whole entry, looked up): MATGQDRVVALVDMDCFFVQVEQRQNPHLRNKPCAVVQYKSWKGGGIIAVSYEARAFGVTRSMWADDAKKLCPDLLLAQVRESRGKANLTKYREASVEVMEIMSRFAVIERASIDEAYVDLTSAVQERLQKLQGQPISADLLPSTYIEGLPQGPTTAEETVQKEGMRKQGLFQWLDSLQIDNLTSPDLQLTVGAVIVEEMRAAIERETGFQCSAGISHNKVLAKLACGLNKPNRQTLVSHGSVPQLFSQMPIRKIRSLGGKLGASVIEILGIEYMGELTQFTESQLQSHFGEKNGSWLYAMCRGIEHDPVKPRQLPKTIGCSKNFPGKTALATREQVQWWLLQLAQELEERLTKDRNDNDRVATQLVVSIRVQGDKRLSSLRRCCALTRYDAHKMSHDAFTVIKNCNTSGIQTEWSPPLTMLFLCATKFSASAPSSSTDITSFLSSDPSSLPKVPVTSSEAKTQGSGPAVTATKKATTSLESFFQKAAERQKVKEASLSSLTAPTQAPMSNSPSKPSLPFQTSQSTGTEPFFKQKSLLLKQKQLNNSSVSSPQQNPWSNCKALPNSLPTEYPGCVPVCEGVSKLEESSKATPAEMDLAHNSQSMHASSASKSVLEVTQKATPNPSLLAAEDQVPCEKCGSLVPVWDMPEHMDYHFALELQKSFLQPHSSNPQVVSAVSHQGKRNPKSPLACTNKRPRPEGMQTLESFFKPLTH
# Test: qHTS for Inhibitors of Polymerase Eta: Confirmatory Assay for Cherry-picked Compounds (AID 720502)
# Conditions: Pol eta primer extension, TAMRA/BHQ fluorescence, 10 min
# Procedure, shortened: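 Plates with 10 nM enzyme and compound stood 15 min at room temperature before substrate addition (50 nM final). Displacement of the TAMRA reporter from the BHQ-2 template was tracked for 10 min.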
# Potency means the concentration at half of the fitted maximal effect; tags describe the fitted curve by direction and shape.
row,Compound,Potency
1,O=C(COC(=O)c1cnccn1)Nc1ncc(Cl)cc1Cl,"inconclusive [inhibitor, single point]"
2,Cc1ccc(-n2c(O)c(C=Nc3ccccc3-c3n[nH]c(=S)[nH]c3=O)c3ccccc3c2=O)cc1C,"inconclusive [inhibitor, single point]"
3,COc1cc(/C=C/C(=O)O)cc(S(=O)(=O)NNC(=O)c2cc(C)oc2C)c1OC,"inconclusive [inhibitor, single point]"
4,Cc1cc(C(F)(F)F)nc(SCc2ccc(C(=O)O)o2)n1,"inconclusive [inhibitor, single point]"
5,COC(=O)Cc1cc(C)cc2c(=O)cc(-c3ccoc3)oc12,"inconclusive [inhibitor, single point]"
6,Cc1oc(C(=O)O)cc1COc1cccc2cccnc12,"inconclusive [inhibitor, full curve, poor fit]"
7,O=C1NC(=Nc2ccccc2Cl)S/C1=C\c1cccc([N+](=O)[O-])c1O,"inconclusive [inhibitor, single point]"
8,Cc1ccc([N+](=O)[O-])cc1S(=O)(=O)Nc1ccc(C(=O)N2CCN(C(=O)c3ccco3)CC2)cc1,"inconclusive [inhibitor, single point]"
9,O=C(CCc1nnc2ccc(NCc3ccco3)nn12)Nc1ccccn1,"inconclusive [inhibitor, single point]"
10,Cc1cc(NC(=O)c2cc(S(=O)(=O)N3CCCCC3)ccc2C)no1,"inconclusive [inhibitor, single point]"
11,COc1cc(/C=C2\C(=O)NN(c3ccccc3)C2=O)cc([N+](=O)[O-])c1O,active: 26.9 µM
12,CC1=NN(c2ccc(C)c(C)c2)C(=O)/C1=C\C=C\c1ccc([N+](=O)[O-])o1,active: 53.6 µM
13,COc1cc(C2CC(=O)Oc3c2c(=O)n(C)c2ccccc32)ccc1O (centres undefined),"inconclusive [inhibitor, single point]"
14,COC(=O)CNC(=O)c1ccc(NS(=O)(=O)c2cc([N+](=O)[O-])ccc2Cl)cc1,active: 75.7 µM
15,COc1ccccc1-c1nnc2sc(-c3cnccn3)nn12,"inconclusive [inhibitor, full curve]"
16,COc1cc(Br)cc2cc(C(=O)N3CCN(C(=O)c4ccco4)CC3)c(=O)oc12,active: 84.9 µM
17,Cn1nnnc1SCC1=C(C(=O)O)N2C(=O)C(NC(=O)C3CC3c3ccccc3)C2SC1 (centres undefined),active: 47.8 µM
18,Cc1c(C(=O)O)sc2nc(CSc3nnc(-c4ccc(F)cc4)n3C)[nH]c(=O)c12,"inconclusive [inhibitor, single point]"
19,O=C(Nc1nnc(C2CC2)s1)C1CC(=O)N(c2ccc3c(c2)OCCO3)C1 (centres undefined),"inconclusive [inhibitor, single point]"
20,Cc1cccc2cc(/C=N/NC(=O)c3ccccc3O)c(Cl)nc12,"inconclusive [inhibitor, single point]"

row,Compound,Potency
1,O=C(Cc1ccc(S(=O)(=O)N2CCOCC2)s1)NC1CCCCC1,"inconclusive [inhibitor, single point]"
2,CC(Oc1ccccc1)C(=O)Nc1oc(-c2ccco2)c(-c2ccco2)c1C#N (centres undefined),"inconclusive [inhibitor, single point]"
3,CCOc1cc(C2NC(=O)NC(C)=C2C(C)=O)cc(Cl)c1OCC(=O)O (centres undefined),"inconclusive [inhibitor, single point]"
4,Cc1nn2c(=O)cc(COC(=O)c3cccc(NC(=O)COc4ccccc4Cl)c3)nc2s1,"inconclusive [inhibitor, single point]"
5,COc1ccccc1OCCn1c(SCC(=O)O)nc2ccccc21,"inconclusive [inhibitor, single point]"
6,COc1cccc2cc(C(=O)CS(=O)(=O)c3ccc(Cl)cc3)c(=O)oc12,"inconclusive [inhibitor, single point]"
7,Oc1ccc(-c2csc(-c3cccnc3)n2)cc1O,"inconclusive [inhibitor, single point]"
8,COC(=O)c1c(C)[nH]c(C(=O)COc2ccc3ccc(=O)oc3c2)c1C,"inconclusive [inhibitor, single point]"
9,COc1cccc(CN(C(=O)/C=C/c2ccco2)C2CCS(=O)(=O)C2)c1 (centres undefined),"inconclusive [inhibitor, single point]"
10,N#Cc1ccsc1NC(=O)COC(=O)CCS(=O)(=O)c1ccccc1,"inconclusive [inhibitor, single point]"
11,CC(C)c1ccc(NS(=O)(=O)c2ccc3[nH]cc(C(=O)NCC4CCCO4)c(=O)c3c2)cc1 (centres undefined),"inconclusive [inhibitor, single point]"
12,O=C(CCN1C(=O)/C(=C\c2cccs2)SC1=S)Nc1ccc(C(=O)O)cc1,"inconclusive [inhibitor, single point]"
13,COC1=CC(=Cc2c(N)n3nc(CC(=O)N4CCOCC4)sc3nc2=O)C=C(OC)C1=O,"inconclusive [inhibitor, single point]"
14,COc1ccc(CCC(=O)O)c(O)c1,active: 67.5 µM
15,NC(=O)c1ccc(N=Cc2ccc([N+](=O)[O-])s2)cc1,"inconclusive [inhibitor, single point]"
16,CC1=NN(c2ccccc2)C(=O)/C1=C/c1ccc(-c2ccc(C)c(C(=O)O)c2)o1,"inconclusive [inhibitor, single point]"
17,COCCN(C(=O)COC(=O)c1cc2c(s1)CCCC2)c1c(N)n(Cc2ccccc2)c(=O)[nH]c1=O,"inconclusive [inhibitor, single point]"
18,O=C(Nc1cc([N+](=O)[O-])ccc1O)c1ccc2c(c1)C(=O)N(Cc1ccco1)C2=O,"inconclusive [inhibitor, single point]"
19,CCOC(=O)C1=C(O)/C(=C/c2ccc(-c3ccccc3C(=O)O)o2)SC1=Nc1ccc(OC)cc1,active: 42.6 µM
